# Experimental data reported in PMC12040169 (PLOS Biology, 2025).
# The other results are listed elsewhere or left out.
# System: T1, C. trachomatis L2/434/Bu expressing GFP (CTL2-GFP)
# T1 construct: L2/434/Bu GFP intracellular growth in HeLa cells
# Design: species or system HeLa; C. trachomatis total inclusion area by high-content imaging, normalised to DMSO
# Details: total inclusion area; 28.5 h, 10 µM; inhibitor
# In short: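 High-content images of fixed, Hoechst-stained infected cultures supply inclusion area and count (growth) plus nuclei number (viability), complementing bulk GFP/resorufin fluorescence. MIC determination is unchanged from the primary assay.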
row,Compound,% of control remaining
1,CC(C(=O)NCCc1ccncc1)n1cnc2ccccc21 (stereo not drawn) [CBK282202],92.8263
2,CC1CCN(S(=O)(=O)c2ccc(Cl)c(C(=O)Nc3ccc(C(=O)O)cc3)c2)CC1 [CBK265170],98.1148
3,Cc1ccc(S(=O)(=O)OCCOS(=O)(=O)c2ccc(C)cc2)cc1 [CBK260986],106.076
4,COc1ccc(-c2noc(-c3cnccn3)n2)c(OC)c1 [CBK287878],85.4389
5,Cn1c(-c2cc(=O)c(C(=O)O)c[nH]2)n[nH]c1=O [CBK012603],60.1164
6,Oc1ccc(Nc2ccnc3cc(Cl)ccc23)cc1 [CBK012365C],122.625
7,Cc1cc(C)n(C(C)C(=O)NCC2(N(C)C)CCCC2)n1 (stereo not drawn) [CBK281713],57.4378
8,O=C(COC(=O)C1CCN(S(=O)(=O)c2cccc3cccnc23)CC1)c1cccc([N+](=O)[O-])c1 [CBK264435],107.602
9,Cc1ccc(NC(=O)c2cnc3ccc(C)cn3c2=O)cc1 [CBK287285],84.9264
10,Cn1nc(CN2CCNC(=O)C2c2ccccc2C(F)(F)F)[nH]c1=O (stereo not drawn) [CBK306269],51.2189
11,O=C(NCc1ccccc1)c1c(O)c2ccccc2n(Cc2ccccc2)c1=O [CBK291174],92.1253
12,CN(C(=O)CN1CCN(c2cc(-c3cc4ccccc4o3)ncn2)CC1)c1ccccc1 [CBK091128],149.658
13,O=S(=O)(c1ccc2ccccc2c1)N1CCCCC1CO (stereo not drawn) [CBK200055],85.9442
14,CN(C)CCNC(=O)C1CCCN(c2nc3c(-c4ccccc4)csc3c(=O)[nH]2)C1 (stereo not drawn) [CBK215501],102.708
15,Cn1c(=O)[nH]c2c(nc(-c3ccccc3)n2C)c1=O [CBK287855],104.458
16,O=C(CC1CC1)N1CCC2(CCN(Cc3ccccc3)C2)C1 (stereo not drawn) [CBK136825],105.363
17,CC[C@H]1CN(C(=O)C2CC2)CC[C@H]1CC(=O)N(C)CC#N [CBK289132],98.4288
18,CC(C)C(N)c1nnc(SCc2ccccc2Cl)o1 (stereo not drawn) [CBK270121C],98.6421
19,NC(=O)C1(N2CCCCC2)CCN(C(=S)NC2CCCC2)CC1 [CBK091884],68.4899
20,O=C(NCCN1CCOCC1)NC(=O)c1ccc(Cl)cc1 [CBK269446],66.0949
21,CC(NC(=O)CCc1nc2ccccc2n1C)c1ccccn1 (stereo not drawn) [CBK281823],94.7091
22,CSCCN1CCC2(CC1)CN(C(=O)C(C)C)c1ccccc12 [CBK131473],91.1509
23,COC(=O)C1=C(C)N(c2cccc(C(F)(F)F)c2)C(=O)/C1=C\c1ccc(C(=O)O)cc1 [CBK265129],102.509
24,CN1C2CCC1CC(OC(=O)CNC1CCCCC1)C2 (stereo not drawn) [CBK278161C],86.2734
25,CCc1nc(CN(C(C)=O)C2CCN(CCc3ccccn3)C2)no1 (stereo not drawn) [CBK305372],34.2517
26,Cn1nc(-c2ccc(S(=O)(=O)Nc3nc(=O)[nH]cc3F)s2)cc1C(F)(F)F [CBK067574],95.1909

row,Compound,% of control remaining
1,Cc1sc2nc(SCCCN3C(=O)c4cccc5cccc(c45)C3=O)nc(N)c2c1C [CBK264424],117.345
2,COc1ccc(Cl)cc1NC(=S)NNC(=O)c1cc(C)nc2ccccc12 [CBK266920],70.0925
3,O=C(c1ccoc1)N1CCC2(CCCN(CCCn3c(=O)[nH]c4ccccc43)C2)C1 (stereo not drawn) [CBK132818],112.004
4,c1csc(-c2cncc(NCc3ccncc3)n2)c1 [CBK065583],114.888
5,CC1CCc2c(sc3ncnc(SCC(=O)N(C)CCC#N)c23)C1 (stereo not drawn) [CBK305896],96.8663
6,CCOC(=O)c1c(-c2ccc(C)o2)csc1NC(=O)CN1CCCCC1C (stereo not drawn) [CBK265917],106.891
7,CCOc1ccccc1NC(=O)CN(c1cc(C(F)(F)F)ccc1Cl)S(C)(=O)=O [CBK264627],99.3931
8,O=C(Cc1cccs1)N1CCC(O)(c2ccccn2)CC1 [CBK283587],107.726
9,COc1ccc2c(c1)c(C(=O)N1CCC3(CCNCC3)CC1)c(C)n2C [CBK306562],84.4777
10,CSCCC(Nc1ncnc2c1c(C)c(C)n2Cc1ccco1)C(=O)O (stereo not drawn) [CBK307568],106.017
11,CC(C)[C@@H](CO)Nc1nccnc1-c1ccoc1 [CBK036648],107.752
12,CCOC(=O)/C(=N/O)C(=O)c1c[nH]c2ccccc12 [CBK260979],106.383
13,COc1ccc(C(=O)Nc2nnc(-c3ccc(OC)c(OC)c3)o2)cc1OC [CBK287745],107.098
14,c1ccc(Nc2c(-c3ccccc3)nc3[nH]cnn23)cc1 [CBK287284],87.1948
15,Cc1cc(C(F)(F)F)nn1CCC(=O)Nc1cnn(C)c1C(=O)O [CBK286817],99.4111
16,CC(C)Cc1nc(C(=O)N2CCC3(C2)NC(=O)NC3=O)cs1 (stereo not drawn) [CBK305534],44.2321
17,COc1ccc(CCNC(=S)n2cc(C)cn2)cc1OC [CBK267001],85.9376
18,CC1CCc2c(C(=O)Nc3ncc(Cc4ccccc4)s3)csc2C1 (stereo not drawn) [CBK300531],15.1264
19,O=C1O[C@@H](CO)CN1c1ccc(N(Cc2ccccc2)Cc2ccccc2)c(F)c1 [CBK016873],76.3516
20,Cc1ccc(NC(=O)c2ccccc2NS(=O)(=O)c2ccc(C(C)C)cc2)cc1 [CBK113800],103.672
21,Cc1nnc(CN2CCOC(c3nc(C(C)(C)C)cs3)C2)n1C (stereo not drawn) [CBK305772],12.5002
22,O=c1n(CC2CCCCC2)c2ccccc2n1S(=O)(=O)c1cccc(Cl)c1 [CBK106521],91.8931
23,O=C(CSCc1c(Cl)cccc1Cl)Nc1ccc(S(=O)(=O)N2CCOCC2)cc1 [CBK266276],95.2312
24,CC1CCC(C(C)C)C(OCC(O)CN2CCN(C)CC2)C1 (stereo not drawn) [CBK278213C],86.472
25,Fc1ccccc1CN1CCC(Oc2cncc(OCCN3CCOCC3)n2)C1 (stereo not drawn) [CBK084479],94.258
